This note sets out measurements from the antibiotic and cytotoxicity screens of Wong et al. (2023).

SMILES strings stand for the structures. Some of the results follow.

The first assay concerns HepG2. Nature of the assay: cytotoxicity call (relative viability < 0.9). The note with it: 10 µM.
Turning to `O=C(C[C@H]1C[C@@H]2c3cc(NC(=O)C4CCOCC4)ccc3O[C@@H]2[C@H](CO)O1)NCc1ccc(Cl)cc1`, the cytotoxicity call was “inactive”.
Still for that read-out and setting: the result for `COc1ccc(S(=O)(=O)N(C)C[C@H]2Oc3c(NC(=O)c4cc(C)nn4C)cccc3C(=O)N([C@@H](C)CO)C[C@@H]2C)cc1` reads “inactive”; that for `C[C@@H]1CN([C@@H](C)CO)C(=O)c2cc(C#Cc3ccccc3F)cnc2O[C@@H]1CN(C)C(=O)Cc1cccnc1`, “inactive”.
Still for that read-out and setting: next, `C[C@@H]1CN([C@H](C)CO)C(=O)Cc2cc(NC(=O)Nc3cccc4ccccc34)ccc2O[C@@H]1CN(C)S(=O)(=O)c1ccc(F)cc1`: “inactive”; `CC(C)NC(=O)Nc1ccc2c(c1)C(=O)N([C@H](C)CO)C[C@@H](C)[C@H](CN(C)S(=O)(=O)c1cn(C)cn1)O2`: “inactive”.
On the same count and under the same terms, next, `CCn1cc(C(=O)O)c(=O)c2cc(F)c(N3CCN(C(=S)Nc4cc(C(F)(F)F)ccc4Cl)CC3)cc21`: “inactive”; `C[C@@H]1CN([C@@H](C)CO)C(=O)c2cccc(NS(C)(=O)=O)c2O[C@H]1CN(C)S(=O)(=O)c1cn(C)cn1`: “inactive”.
For the compound `C[C@@H]1CN([C@H](C)CO)C(=O)c2cc(C#Cc3ccccn3)cnc2O[C@H]1CN(C)C(=O)CCN1CCCCC1`, the cytotoxicity call is “inactive”.
On the same count and under the same terms, next, `C[C@H]1CN([C@@H](C)CO)C(=O)c2cccc(NS(=O)(=O)c3cn(C)cn3)c2O[C@H]1CN(C)C(=O)Nc1ccc2c(c1)OCO2`: “inactive”; `Cc1noc(C)c1NC(=O)Nc1ccc2c(c1)C(=O)N([C@@H](C)CO)C[C@H](C)[C@@H](CN(C)S(=O)(=O)c1cccs1)OCCCC[C@@H](C)O2`: “inactive”.

In a further assay the test system is S. aureus RN4220. Nature of the assay: growth inhibition call (relative growth <= 0.2). As to conditions: 50 µM.
`CN1CCCCC[C@@H]1C(=O)O`: the growth inhibition call is “inactive”.
Same read-out and setting: next, `C[C@H]1CN([C@@H](C)CO)C(=O)c2cccc(NC(=O)Nc3ccc4c(c3)OCO4)c2O[C@H]1CN(C)C(=O)Nc1ccc(C(F)(F)F)cc1`: “inactive”.
On the same count and under the same terms, next, `C[C@@H]1CCCCO[C@H](CN(C)C(=O)Nc2cccc3ccccc23)[C@@H](C)CN([C@H](C)CO)C(=O)c2cc(NC(=O)c3ccccc3)ccc2O1`: “inactive”; `C[C@@H]1CN([C@@H](C)CO)S(=O)(=O)c2ccc(C3=CCCC3)cc2O[C@H]1CN(C)C(=O)C1CCOCC1`: “inactive”; `Cc1noc(C)c1S(=O)(=O)N(C)C[C@H]1Oc2ccc(NC(=O)CCN3CCOCC3)cc2CC(=O)N([C@H](C)CO)C[C@H]1C`: “inactive”.
The same measure, in the same setting: next, `C[C@@H]1CCCCO[C@@H](CN(C)C(=O)Nc2ccc(C(F)(F)F)cc2)[C@H](C)CN([C@@H](C)CO)C(=O)c2cc(NS(=O)(=O)c3cccs3)ccc2O1`: “inactive”; `C[C@H]1CN([C@@H](C)CO)C(=O)Cc2cc(NS(C)(=O)=O)ccc2O[C@@H]1CN(C)S(=O)(=O)c1cccs1`: “inactive”.
On to `Cc1[nH]c(=O)[nH]c(=O)c1S(=O)(=O)N1CCC(C(=O)NCCC(C)C)CC1`, for which the growth inhibition call is “inactive”.
Same read-out and setting: the result for `O=C(NCCN1CCOCC1)[C@]1(CCS(=O)(=O)c2ccccc2)N=C(c2ccc(OCCCO)cc2)O[C@@H]1c1ccccc1` reads “inactive”; that for `CC(C)Cn1cnc2c(N)nc3ccccc3c21.Cl`, “inactive”.
Same read-out and setting: next, `C[C@@H]1CN([C@H](C)CO)C(=O)c2cccc(NC(=O)c3ccc(-c4nccs4)cc3)c2O[C@H]1CN(C)Cc1ccc(C(F)(F)F)cc1`: “inactive”.
As to `COCC#Cc1ccc2c(c1)O[C@H](CN(C)S(=O)(=O)c1ccc(C)cc1)[C@H](C)CN([C@H](C)CO)S2(=O)=O`, the growth inhibition call is “inactive”.
On the same count and under the same terms, the result for `C[C@H](CO)N1C[C@H](C)[C@@H](CN(C)C(=O)Nc2ccc3c(c2)OCO3)OCCCC[C@H](C)Oc2ccc(NC(=O)CCC(F)(F)F)cc2C1=O` reads “inactive”; that for `Cc1noc(C)c1NC(=O)Nc1ccc2c(c1)CC(=O)N([C@@H](C)CO)C[C@H](C)[C@H](CN(C)S(=O)(=O)c1ccccc1)O2`, “inactive”.
With `COCC(=O)N1C[C@@H](C)[C@@H](OC)CN(C)C(=O)c2ccc(NC(=O)Nc3ccccc3)cc2OC[C@H]1C`, the growth inhibition call was “inactive”.
Still for that read-out and setting: next, `CCN1C(=O)[C@H]2[C@@H](O)CS[C@H]2C1=O`: “inactive”; `COc1cccc(-c2ccc([C@@H](Oc3cc(-c4ccc(C[C@H](N)C(=O)O)cc4)nc(N)n3)C(F)(F)F)cc2)c1`: “inactive”; `C[C@@H]1CN([C@H](C)CO)C(=O)c2cc(NS(C)(=O)=O)ccc2O[C@@H]1CN(C)Cc1ccc2c(c1)OCO2`: “inactive”.
Still for that read-out and setting: next, `Cc1noc(C)c1NC(=O)N(C)C[C@@H]1OCCCC[C@H](C)Oc2ccc(NC(=O)Nc3ccc4c(c3)OCO4)cc2C(=O)N([C@@H](C)CO)C[C@H]1C`: “inactive”.
